PubChem BioAssay (NCI)
Some structures have more than one record in an assay (separate samples or runs), and their calls can disagree.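 Note: values are percent growth. 100 is the growth of untreated cells, values between 100 and 0 indicate rising inhibition; between -100 and 0 indicates cell death.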 Not every entry of the source has a single result; some have several. They are shown here; other results are not. The calls were made as follows: active = growth percent below 10; inactive = the rest. The source may hold further records. The screen tested this drug many times, at the concentration stated with the values; each value is one run. Counts like (3×) give the number of equal values in this list.

How the values were obtained:
Test in all cases: NCI-60 one-dose screen, 48 h (100 = growth as untreated, 0 = no growth, -100 = all killed)
OVCAR-8 ovarian = details: 2.5 mM
OVCAR-5 ovarian = details: 2.5 mM
OVCAR-4 ovarian = details: 2.5 mM; runs of 1991

O=c1[nH]cc(F)c(=O)[nH]1
growth (OVCAR-8 ovarian; runs of 1997): inactive: 21.1, 35.4, 34.4, 47, 22.5, 29.1, 43.5, 10.8, 25.1, 42, 26.5 (2×), 24.9, 33.3, 22.7, 17.5, 34.2, 31.8, 24.6, 29.5 (3×), 30.8 (2×), 21.9, 19.5, 18.2, 27.2, 31.4, 31.6, 32.8, 28.9, 26.4, 32, 25.4, 29.2, 28.7, 40, 22.4, 27.3, 23.1% and active: -0.681% | growth (OVCAR-8 ovarian; runs of 1998): inactive: 22.7, 18.3, 27, 28.2, 12.8, 32.8, 30.9, 21, 28.4, 25.7, 34.2, 31.5, 25.9, 16.7, 43.6, 31.4, 24.2, 20.6, 35.5, 30.1, 28.8, 38.4, 23.7% and active: -43.1% | growth (OVCAR-8 ovarian; runs of 1999): inactive: 20.1, 20.4, 26.5, 24.5, 20.3, 27.2, 18.7% and active: -100, 0.0973, 2.22, 7.43, 1.11, 0.983, -72.4, -4.58, 6.41, 6.18% | growth (OVCAR-8 ovarian; runs of 2000): active: 0.0677, 4.55, 2.59, 1.15% | growth (OVCAR-5 ovarian; runs of 1991): active: -38.1, -27.3, -41.4, -33, -59.3, -24.9, -60.9, -27.4, -42.6, -4.79, 3.31, -52.7, -26.6, -2.2, -24.2, -75.8, -53% | growth (OVCAR-5 ovarian; runs of 1992): active: -45 (2×), -45.2, -10.3, -5.57, -62.1, -74.1, -39.8 (2×), -37.8, -8.81, -42, -9.85, -42.5, 7.08, -30.1, -63 (2×), -50.4, -29.8 (2×), -66.5, -7.9, 4.71, 0.623, -2.75, -7.6, -4.13, -14.4 (2×), -7.48, -63.1, -37.5, -30.6, -57.8, -60, -31, -40.2, -3.33, -1.37, 2.34, -9.81, -10, -2.21, 9.92, -23.8, -31.2, -31.5, -64.9, -25.9, -36.6, -12, -59.6, -18.5, 6.19, -43.2, -47.1, -26.9, 3.71, -53.6, -0.338, -41.6, -12.5, -25.2, -7.19, -32.3, -17.6, -5.77, -51.5, -28.2, -27.5, -2.83, -21.9, -56, 6.33, -37.7, -29.6, -22.7, -44.6, -40, -31.7, -35.4, -20.1, -22.6 (2×), -33.3, -21.5, 0.078, -13.5, -0.417, 1.68, -0.347, -12.3, -5.39, -39.1, -68.8, -26.3, -14% and inactive: 12.1, 10.3, 94.5, 10.9, 28.5, 232, 14, 14.6, 25.5, 17.2% | growth (OVCAR-5 ovarian; runs of 1993): active: -4.64, -4.76, -61.8, -17.1, -7.57, -69.7, -26.4 (2×), -30.5, -23, -1.29, -62.6, -51.4, -0.292, 7.05, -47.6, -34.1, -50, -76.1, -0.469, -2.02, -18, -39.5, -27.7, -20.2, 0.879, 2.32% and inactive: 16.9, 21.2, 18.3, 34.1, 15.9, 16.8, 16.7, 15, 29.9, 14.9, 117, 109, 17.8, 40.1, 42.9, 31.4% | growth (OVCAR-5 ovarian; runs of 1994): inactive: 17, 26.7, 14.3 (2×), 19.5, 22.4, 33.9, 14.2, 24.3, 29.3, 10.9, 11, 35.8, 30% and active: -40.3, -31.5, -7.06, -9.91, 5.63, 8.51, -3.96, -6.73, -23, -1.82, -10.1, -27.5, -45.4, -32.3, 1.63, -53.8, -38.6, -31.4, -35.2, 1.27% | growth (OVCAR-5 ovarian; runs of 1995): inactive: 13.6, 42.9, 33 (2×), 17.2, 11.3, 18.1, 14.3, 26.1, 25.1, 29.4, 14.5, 26.6, 34.4, 26.8, 10.9, 11.6% and active: -3.46, 9.98, -27.2, -11.1, -17.2, -2.45, -15.9, 3.43, -25.3, -47.5, -28, 7.47, 9.87, -31.2, -12.2, -51, -6.9, -19.9, -40% | growth (OVCAR-5 ovarian; runs of 1996): inactive: 19.1, 39, 34.2, 33.9, 40.1, 33.5, 45, 47.1, 21.8, 10.2 (2×), 11.4, 13.7, 26.5, 27.4, 43.1, 15.9, 13.9, 20.3, 18.8, 28.2, 35.3, 41.6, 22.4, 44.2, 11.2, 29.8, 36.7, 38.1, 13.2, 14.1, 39.3, 44.3, 34.1% and active: -35.5, 7.76, -0.646, -52.6, -0.627, 5.19, -19.6, 2.12, -46.2, -44.4, -12.2, -13, -40.1, 5.81, 1.93, -9.82, 2.37, -4.46, -25.3, 3.1, -5.54, -6.62, -22.8, -23% | growth (OVCAR-5 ovarian; runs of 1997): inactive: 16.4, 18.6, 19.5, 11.6, 47.8, 14.1, 18.8, 21.1, 37.7, 12.5, 25.8, 17.4, 36.8, 43.1, 29.5, 114, 31, 43.3, 15.4, 33, 37.6, 49.3, 22.6% and active: -11.6 (2×), -1.18, -28.2, -0.811, -44.8, -47.6, 6.98 (2×), -14.7, -8.46, -18.6, -6.73, -4.98, -12.2, 1.79, -0.976, -10.2, -18.8, 8.39, -5.38, 7.8% | growth (OVCAR-5 ovarian; runs of 1998): inactive: 38.2, 48.5, 18.9, 41.1, 35, 27.4, 25.7, 12.7, 34.6% and active: -12.3, 0.143, 3.87, -13.9, -16.7, -30.8, -13.2, -9.28, -42.7, 9.28, -16.9, -45.1, 1.65, -0.126, -52.9% | growth (OVCAR-5 ovarian; runs of 1999): inactive: 18.2%, 32.4%, 14.9% and active: 3.25, 5.19, 3.63, -63, -23, 2.41, -15.9, 0.831, 0.873, -24, -44.8, 0.678, -59.3, 2.98% | growth (OVCAR-5 ovarian; runs of 2000): active: -55, 1.73, 2.06, -17% | growth (OVCAR-4 ovarian): active: -21, -32.3, -34.1, -8.59, -41.4, -13.8, -21.8, -14.6, -44.7, -5.87, -30.2, -41.8, -20.3, -33.6, -20.7, -45.5, -39.1, -43.8% and inactive: 13.6%
